Measurements from article PMC4336329 (PLoS ONE, 2015).
Among all 310,000 compounds or so, about 2,200 (0.71%) showed an effect of 50% or more. The effect is printed as a negative number. Some of the results follow.

These compounds were tested against human ether-à-go-go-related gene (hERG) potassium channel (human, UniProt Q12809) (assay: primary screen, population patch clamp on CHO cells stably expressing hERG).
Chain of human ether-à-go-go-related gene (hERG) potassium channel (Q12809 whole entry, looked up): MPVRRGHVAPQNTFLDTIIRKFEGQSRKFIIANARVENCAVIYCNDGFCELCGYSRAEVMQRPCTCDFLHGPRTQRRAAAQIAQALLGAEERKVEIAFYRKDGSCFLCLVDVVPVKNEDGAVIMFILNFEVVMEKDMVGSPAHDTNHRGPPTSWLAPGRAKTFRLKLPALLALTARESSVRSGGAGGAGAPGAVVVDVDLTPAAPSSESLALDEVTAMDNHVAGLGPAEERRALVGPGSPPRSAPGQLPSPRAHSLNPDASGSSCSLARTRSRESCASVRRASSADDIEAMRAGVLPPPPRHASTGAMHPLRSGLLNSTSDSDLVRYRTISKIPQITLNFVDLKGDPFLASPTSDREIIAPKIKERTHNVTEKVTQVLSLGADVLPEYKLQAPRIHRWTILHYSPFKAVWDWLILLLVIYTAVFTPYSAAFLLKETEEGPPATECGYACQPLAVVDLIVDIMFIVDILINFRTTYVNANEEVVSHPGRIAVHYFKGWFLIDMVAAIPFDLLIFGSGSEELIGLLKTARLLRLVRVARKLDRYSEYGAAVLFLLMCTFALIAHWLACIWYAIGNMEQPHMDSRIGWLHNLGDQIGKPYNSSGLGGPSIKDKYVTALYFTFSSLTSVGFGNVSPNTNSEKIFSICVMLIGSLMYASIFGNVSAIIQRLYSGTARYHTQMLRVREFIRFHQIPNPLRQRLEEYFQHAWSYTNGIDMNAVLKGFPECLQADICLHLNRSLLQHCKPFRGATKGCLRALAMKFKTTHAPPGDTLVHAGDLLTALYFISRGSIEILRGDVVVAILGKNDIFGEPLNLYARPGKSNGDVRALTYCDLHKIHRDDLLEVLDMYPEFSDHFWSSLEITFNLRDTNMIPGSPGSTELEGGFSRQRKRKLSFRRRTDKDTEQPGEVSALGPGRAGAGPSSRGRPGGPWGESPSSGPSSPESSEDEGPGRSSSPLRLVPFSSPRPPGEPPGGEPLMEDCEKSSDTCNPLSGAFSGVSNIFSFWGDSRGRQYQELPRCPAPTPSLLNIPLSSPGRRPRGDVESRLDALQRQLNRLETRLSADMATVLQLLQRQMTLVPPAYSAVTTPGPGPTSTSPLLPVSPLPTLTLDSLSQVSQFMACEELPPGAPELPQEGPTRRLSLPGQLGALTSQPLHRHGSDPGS

| SMILES | hERG current change (%, negative = inhibition) at 1uM [%] |
| --- | --- |
| CCOC(=O)C1CCN(c2ncnc3c2oc2ccc(Br)cc23)CC1 | -2.55 |
| O=C(NC1CCCCC1)c1cc2nc3c(c(C(F)(F)F)n2n1)CCCC3 | -2.25 |
| COc1ccccc1C(=O)NC(=O)CSc1nnc(N)s1 | -0.326 |
| Cc1nc(C(F)(F)F)ccc1C(=O)N1CCCCC1 | 17.5 |
| CCOC(=O)c1cnn(-c2nc(-c3ccccc3F)cs2)c1C(F)(F)F | 4.74 |
| CCn1cnc2sc(C(=O)Oc3cccc(C)c3)c(C)c2c1=O | 10.9 |
| Oc1ccccc1C=NC(c1ccccc1)C(O)c1ccccc1 (stereo not drawn) | 2.05 |
| Cc1ccc(C)c2[nH]c(=O)c(CCNC(=O)c3ccco3)cc12 | 10.5 |
| O=C(NCc1cccs1)C1CCCN1S(=O)(=O)c1ccccc1F (stereo not drawn) | -0.297 |
| COc1ccc(S(=O)(=O)N2CCN(Cc3cc(OC)c(OC)c(OC)c3)CC2)cc1.O=C(O)C(=O)O | 17.2 |
| Cc1cc(C)nc(-n2nc(C)c(Oc3ccccc3O)c2C)n1 | 3.94 |
| CN(CCCC(=O)NCc1ccc2c(c1)OCO2)S(=O)(=O)c1ccc([N+](=O)[O-])cc1 | -10.9 |
| CN(c1cnn(-c2ccccc2)c(=O)c1Cl)n1cccc1 | 8.82 |
| Cc1ccc2c(c1)C(O)(CC(=O)/C=C/C=C/c1ccccc1)C(=O)N2 (stereo not drawn) | 16.2 |
| O=C(NCc1ccc(Cl)cc1)C1CC(O)CN1S(=O)(=O)c1ccc(Cl)cc1 (stereo not drawn) | 11.6 |
| O=C(Cn1cc(/C=N/NC(=O)c2ccccc2Br)c2ccccc21)Nc1ccc(F)cc1 | 11.4 |
| CCSc1nnc(-c2ccc(S(=O)(=O)N3CCOCC3)cc2)n1C | 12.5 |
| Cc1ccccc1-c1nnn(Cc2ccc(F)cc2Cl)n1 | 7.2 |
| I.OCCNC1=NCCN1 | 15.2 |
| O=C(Nc1cccc(S(=O)(=O)N2CCCCC2)c1)c1ccc2ccccc2n1 | 0.162 |
| COC(=O)c1cc(Br)ccc1NC(=O)Nc1ccccc1 | 5.24 |
| CCOC(=O)C1=C(C)NC(C)=C(C(=O)OCC)C1C(=O)OCC(=O)c1ccc2c(c1)OCCO2 | 6.34 |

| SMILES | hERG current change (%, negative = inhibition) at 1uM [%] |
| --- | --- |
| CCn1cc([N+](=O)[O-])c(C(=O)Nc2c(C)nn(Cc3cccc(F)c3)c2C)n1 | 15.8 |
| O=C(CCNS(=O)(=O)c1ccc(Br)s1)NC1CCCC1 | 2.49 |
| CCOc1ccc(CNC(=O)C2CCCN(S(=O)(=O)N3CC(C)CC(C)C3)C2)cc1OC (stereo not drawn) | 11.3 |
| COCCCNC(=S)N1CCN(C(=O)c2ccco2)CC1 | 11.3 |
| Cc1ccc(NC(=O)CCN2CCC(Cc3ccccc3)CC2)cc1 | -17.4 |
| CC(=O)OCC(=O)Nc1cc(S(=O)(=O)N2CCCCCC2)ccc1Cl | 7.83 |
| COc1ccc(NC(=O)CN2CCCC(C)C2)c([N+](=O)[O-])c1 (stereo not drawn) | -2.14 |
| CCOC(=O)N1CCC(N2C(=O)c3ccccc3C2Nc2cc(C)cc(C)c2)CC1 (stereo not drawn) | -4.38 |
| O=C(Nc1nc(-c2ccccn2)cs1)c1cccc(S(=O)(=O)N2CCOCC2)c1 | 1.18 |
| CCc1nnc(NS(=O)(=O)c2ccc(NC(=O)c3ccc(Cl)cc3)cc2)s1 | 1.4 |
| O=c1[nH]ncc(N/N=C\c2cccnc2)c1Cl | 7.03 |
| COc1ccccc1C(CC(=O)Nc1ccc(Cl)cc1)c1ccc(OC(C)C)cc1 (stereo not drawn) | 3.58 |
| COc1ccc(NC(=O)CNC(=O)c2nn(-c3ccc(OC)cc3OC)c(=O)c3ccccc23)c(OC)c1 | 14.8 |
| Nc1nnc(CCOc2ccc(Cl)cc2)s1 | 7.33 |
| Cc1nc2cc(C(F)(F)F)ccc2n1C1CCN(CC(=O)NC(C)(C)C)CC1 | 4.12 |
| Nc1nnc(CC(=O)N/N=C/c2ccc(-c3cccc(C(=O)O)c3)o2)s1 | 10.6 |
| Cc1ccc(NC(=S)NNC(=S)NC2CCCCC2)cc1 | 9.28 |
| O=C(CN1CCN(CC(=O)Nc2ccc(Cl)cc2)CC1)Nc1ccc(F)cc1 | -86.9 |
| COc1ccc(N2CCN(C(=O)COC(=O)c3cc(S(=O)(=O)N(C)C)ccc3N3CCCC3)CC2)cc1 | 13.2 |
| C/C(CC(=O)Nc1cccc(C(F)(F)F)c1)=N\NC(=O)C(=O)NCC(C)C | 2.68 |
| O=C(N/N=C/c1ccc([N+](=O)[O-])o1)c1cn(-c2ccccc2)nc1-c1ccccc1 | 3.33 |
| Cl.Nc1nc(C23CC4CC(CC(C4)C2)C3)cs1 | 8.94 |

| SMILES | hERG current change (%, negative = inhibition) at 1uM [%] |
| --- | --- |
| O=C(Nc1ccccc1)c1ccc[n+](Cc2ccc([N+](=O)[O-])cc2)c1.[Br-] | 5.28 |
| COc1cc(NC(=O)c2ccccc2)c(OC)cc1NC(=O)Cc1ccc(F)cc1 | 6.34 |
| Cl.Nc1c2ccccc2nc2ccccc12.O | 6.6 |
| O=C(Oc1ccccc1Cl)c1ccc(N2CCOCC2)c([N+](=O)[O-])c1 | 5.77 |
| CCOC(=O)CN1N=C(/C=C/c2ccc(OCC)cc2)CCC1=O | -8.48 |
| COC(=O)[C@H](Cc1ccccc1)NC(=O)NCCc1ccc(F)cc1 | 6.68 |
| CCS(=O)(=O)C1=NN2C(=N)/C(=C\c3ccc(OCCOc4cccc(OC)c4)c(OC)c3)C(=O)N=C2S1 | 14.2 |
| COc1ccccc1CNC(=O)CC1Sc2ccccc2NC1=O (stereo not drawn) | 6.07 |
| CS(=O)(=O)Nc1ccc(C(=O)NC2CCCC2)cc1 | 14.4 |
| CCN(CC)S(=O)(=O)c1ccc(N=NC2=C(O)CC(C)(C)CC2=O)cc1 | 8.55 |
| CCCCc1ccc(NS(=O)(=O)c2c(C)n(C)c(=O)n(C)c2=O)cc1 | 8.02 |
| C=CCOC(=O)C1=C(C)N=C2SCCC(=O)N2C1/C=C/c1ccccc1OC (stereo not drawn) | 5.23 |
| C=CCn1cc(/C=N/N2C(=O)C3C4C=CC(C4)C3C2=O)c2ccccc21 (stereo not drawn) | 12.9 |
| O=C(O)c1cc(N2C(=O)C3CC=CCC3C2=O)ccc1NCc1cccnc1 (stereo not drawn) | 16.5 |
| COc1ccc(/C=C/C(=O)OCC(=O)c2ccc3c(c2)NC(=O)CO3)c(OC)c1 | 9.57 |
| COc1ccc(CC(NC(C)=O)C(=O)N2CCN(C(=O)Nc3ccc(Cl)cc3)CC2)cc1OC (stereo not drawn) | -8.89 |
| NNC(=O)c1ccccc1OCc1ccccc1 | -2.14 |
| Cc1ccccc1-n1c(SCC(=O)N2CCOCC2)nc(O)c(Cc2ccccc2)c1=O | 2.4 |
| CC(C(=O)NC(=O)NC1CCCCC1)N1CCN(C(c2ccccc2)c2ccccc2)CC1 (stereo not drawn) | 10 |
| CCCCn1c(NC(=O)c2ccco2)c(C(=O)OCC)c2nc3ccccc3nc21 | -22 |
| Cc1cc(C(=O)N2CCN(c3ccc([N+](=O)[O-])cc3)CC2)n[nH]1 | -36.6 |
| CCC(C(=O)OCc1csc(CC(=O)Nc2ccccc2C)n1)c1ccccc1 (stereo not drawn) | 8.92 |

| SMILES | hERG current change (%, negative = inhibition) at 1uM [%] |
| --- | --- |
| CCCCn1c(CCNC(=O)c2ccco2)nc2ccccc21 | 7.54 |
| c1nc(N2CCCC2)c2[nH]cnc2n1 | -0.216 |
| COc1ccc2nc(SCC(=O)Nc3ccc(S(=O)(=O)Nc4nccc(C)n4)cc3)[nH]c2c1 | -1.19 |
| O=C(/C=C/c1cccc([N+](=O)[O-])c1)NCCc1ccc(F)cc1 | 0.561 |
| Cc1c(NS(=O)(=O)c2ccc(Br)s2)c(=O)n(-c2ccccc2)n1C | 7.94 |
| Cc1oc2c(c1C(=O)NCc1cccnc1)C(=O)c1ccccc1C2=O | 2.67 |
| CNC(=O)CSc1nnc(-c2ccco2)n1-c1ccc(C)cc1 | -10.9 |
| COc1ccc2c(Cl)c(C(=O)NCCc3ccc(S(N)(=O)=O)cc3)sc2c1 | 13.1 |
| CCOC(=O)c1cc2sccc2n1CC(=O)N1CCCc2ccccc21 | 4.76 |
| CC(C)(C)c1ccc(C(=O)N2CCN(CCNC(=O)C(=O)Nc3ccc(F)cc3)CC2)cc1 | 3.72 |
| COc1ccc(NC(=O)c2ccc(C#CC(C)(C)O)cc2)cc1 | 5.31 |
| COc1ccc(/C=C/C(=O)OCC(=O)NCc2cccs2)cc1OC | 1.61 |
| CC(=O)c1ccc(NC(=O)C[n+]2ccccc2)cc1.[Cl-] | 6.4 |
| CC1CCN(C(=O)CN2c3cccc4cccc(c34)S2(=O)=O)CC1 | 12.9 |
| COc1cccc(/C=N/Nc2ccc(S(=O)(=O)[O-])cc2)c1O.[K+] | 4.86 |
| O=C(Nn1cnnc1)c1cc(Cl)ccc1Cl | 12.6 |
| CC(C)(C)NCC(O)COc1c(F)cc(Br)cc1F.Cl (stereo not drawn) | 2.84 |
| Cc1cc(Cl)c(S(=O)(=O)Nc2ccc3c(c2)OCO3)cc1OCC(N)=O | 0.529 |
| CC(=O)Nc1cccc(NC(=S)Nc2cccc(Cl)c2C)c1 | 4.97 |
| CN(Cc1c(F)cccc1Cl)C(=O)c1ccc(NC(=O)CC2SC(N3CCCC3)=NC2=O)cc1 (stereo not drawn) | 7.81 |
| O=C(CCc1[nH]c2ccccc2c1Sc1ccccc1)NCCO | 0.0034 |
